Assay results from PubChem BioAssay AID504845 (National Center for Advancing Translational Sciences (NCATS), 2011).
Hit rate of the full screen: of about 390,000 compounds, about 150 (0.038%) were called active. Inconclusive results, whose numbers are uncertain, are shown with a selection of clear calls. The call rests on the fitted dose curve; in most records, active means well fitted inhibition curve with a large enough effect; inconclusive means small, poorly fitted or top-dose-only effect; inactive means no such curve, though single readings can be large or run the other way. Potencies beside an inconclusive call are fits to weak or partial responses and may not hold up.

Target: Regulator of G-protein signaling 4 (Homo sapiens) (UniProt P49798)
Assay: Inhibitors of Regulator of G Protein Signaling (RGS) 4: qHTS; further: nearly all actives have a fitted effect of over 75% in size
Conditions: Transcreener GDP fluorescence polarization, RGS4-accelerated GTP hydrolysis; series mostly up to 114 µM
In short: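 MLSMR compounds (23 nl, pin-transferred) preincubated 10 min at room temperature with a 500nM (2x) first reagent, then RGS4 at 900nM (2x) plus Transcreener GDP mix added; fluorescence polarization (620/688 nm) read before and after 90 min at 30 °C.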
On the % scale 0 is the no-effect control and ±100 the full control effect; potency means the concentration at half of the fitted maximal effect; tags describe the fitted curve by direction and shape.

UniProt P49798, sequence (P49798 whole entry, looked up): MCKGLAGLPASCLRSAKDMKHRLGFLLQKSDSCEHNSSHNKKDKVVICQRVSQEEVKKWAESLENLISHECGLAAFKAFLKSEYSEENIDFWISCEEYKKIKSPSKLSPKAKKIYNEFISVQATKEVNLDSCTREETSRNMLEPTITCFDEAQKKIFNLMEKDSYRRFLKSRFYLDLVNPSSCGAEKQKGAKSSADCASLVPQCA

SMILES	Potency	activity change, negative = inhibition
Cc1cc2c(cc(C(=O)OCC(=O)NC3CCCCC3)n2C)o1	inconclusive: 70.8 µM [inhibitor, partial curve, poor fit]	
CCOCCCNC(=O)CN1C(=O)CCn2nc(-c3cccn3C)cc21	inactive	
O=S(=O)(CS(=O)(=O)c1ccccc1)c1ccccc1	inactive	
Cc1cc2c(=Cc3ccc(N(C)C)cc3)c3ccccc3n2[n+]1C	inconclusive: 79.4 µM [inhibitor, single point]	
CC(C)C(c1nnnn1Cc1ccc(F)cc1)N1CCN(c2ccc(O)cc2)CC1 (stereo not drawn)	inconclusive: 50.1 µM [inhibitor, partial curve, poor fit]	
COC(=O)c1cc2occc2n1Cc1nc(-c2ccc(Cl)cc2)oc1C	inconclusive: 17.8 µM [inhibitor, full curve, poor fit]	
CN(C)CCCNc1c2ccccc2nc2ccccc12	inactive	
COc1ccc(C(C)C)cc1S(=O)(=O)NCCc1c(C)[nH]c2c(Cl)cccc12	inactive	
C[C@H](NC(=O)OC(C)(C)C)c1nnc(SCc2ccc(Cl)cc2Cl)o1	inactive	
COC(=O)c1sccc1N/C=C(\C#N)S(=O)(=O)C(C)(C)C	inconclusive: 79.4 µM [inhibitor, partial curve, poor fit]	
Cc1cc(C(=O)Nc2cccc(C(=O)O)c2)oc1C		inactive: -2.79% [at 11.4 µM]
COc1ccccc1N1CCN(C2CC(=O)N(c3cccc(Cl)c3)C2=O)CC1 (stereo not drawn)	inactive	
CCOC(=O)c1sc(NC(=O)/C=C/c2cnn(CC)c2C)c(C(=O)OCC)c1C	inconclusive: 100 µM [inhibitor, partial curve, poor fit]	
COc1cc(/C=C/C(=O)O)cc(S(=O)(=O)NC2CC2)c1OC	inconclusive: 89.1 µM [inhibitor, partial curve, poor fit]	
CSCCC(NC(=O)OCc1ccccc1)C(=O)O (stereo not drawn)	inactive	
CCn1c(Cn2nnc(-c3ccccc3)n2)nnc1SCC(=O)Nc1ccc(C(C)=O)cc1	inactive	
Cc1cc(Cl)ccc1NNC(=O)c1c(C)noc1C	inconclusive: 89.1 µM [inhibitor, single point]	
COc1ccc2c(c1)-c1nc(N)sc1CC2	inconclusive: 79.4 µM [inhibitor, partial curve, poor fit]	
CCOC(=O)C1=C(C)NC(SCC(=O)OC)=C(C#N)C1c1ccc(C(=O)OC)cc1 (stereo not drawn)	inconclusive: 89.1 µM [inhibitor, partial curve, poor fit]	
CCOC(=O)C(=Cc1ccc(Br)cc1)C(=O)OCC	inconclusive: 50.1 µM [inhibitor, partial curve, poor fit]	
O=C(Nc1cc(C(F)(F)F)ccc1N1CCOCC1)c1ccco1	inactive	
Cc1ccc(-c2cc(C(=O)OCC(=O)N(C)C3CCS(=O)(=O)C3)c3ccccc3n2)o1 (stereo not drawn)	inconclusive: 79.4 µM [inhibitor, partial curve, poor fit]	

SMILES	Potency	activity change, negative = inhibition
O=[N+]([O-])c1c(NCCCO)cc(Sc2nc3ccccc3s2)c2nonc12	inconclusive: 50.1 µM [inhibitor, partial curve, poor fit]	
Cc1cc2c(OCC(CNC(C)(C)C)OC(=O)c3ccccc3)cccc2[nH]1 (stereo not drawn)	inconclusive: 21.2 µM [inhibitor, partial curve, poor fit]	
Clc1cccc(Cl)c1C1Nc2cccc3cccc(c23)N1	inconclusive: 56.2 µM [inhibitor, partial curve, poor fit]	
CCOC(=O)c1sc(NC(NC(=O)c2ccco2)(C(=O)OC)C(F)(F)F)nc1C (stereo not drawn)	inconclusive: 89.1 µM [inhibitor, single point]	
COc1ccc(-c2sc(C(=O)c3ccc(Cl)cc3Cl)cc2CC(=O)O)cc1	inactive	
CC(C)c1cc(CN2C(C)COCC2C)cc(C(C)C)c1O (stereo not drawn)	inconclusive: 79.4 µM [inhibitor, partial curve, poor fit]	
COc1ccc(NC(=O)CCc2c(C)nc3c(-c4ccccc4)c(C)nn3c2C)cc1Cl	inactive	
O=C(O)c1ccc(-n2ccnc2)c([N+](=O)[O-])c1	inactive	
CN1C(=O)/C(=C/c2cc(N=Nc3ccccc3)ccc2O)SC1=S	inconclusive: 10 µM [inhibitor, full curve, poor fit]	
CCCCC(=O)Nc1sc(C(=O)N(CC)CC)c(C)c1C(=O)OC	inconclusive: 31.6 µM [inhibitor, full curve, poor fit]	
COCCn1cnc2c(c1=O)c1nc3ccccc3nc1n2/N=C/c1cccc(OC)c1	inconclusive: 17.8 µM [inhibitor, full curve, poor fit]	
CS(=O)(=O)N1N=C(c2ccccc2)CC1c1ccc2nccnc2c1 (stereo not drawn)	inactive	
Cc1cc(C(=O)O)ccc1N=Cc1c(O)ccc2ccccc12	inconclusive: 79.4 µM [inhibitor, partial curve, poor fit]	
Cc1cc(SCC(=O)Nc2ccc3[nH]c(=O)[nH]c3c2)nc2ccccc12	inconclusive: 17.8 µM [inhibitor, full curve, poor fit]	
Cc1cc([N+](=O)[O-])ccc1NC(=S)NC1CCCC1	inconclusive: 89.1 µM [inhibitor, single point]	
CCNc1nc(Oc2ccc(OCC(=O)OC)nn2)nc(N2CCOCC2)n1	inactive	
N#Cc1c(-c2cccc(Br)c2)cc(-c2ccco2)[nH]c1=O	inconclusive: 44.7 µM [inhibitor, partial curve, poor fit]	
O=S(=O)(NCC(c1ccco1)N1CCc2ccccc21)c1ccccc1 (stereo not drawn)	inactive	
CC[n+]1c(/C=C(\C)Nc2ccccc2)sc2ccccc21	inconclusive: 50.1 µM [inhibitor, partial curve, poor fit]	
Cc1cc(C)c(Nc2cc(S(=O)(=O)O)c(N)c3c2C(=O)c2ccccc2C3=O)c(C)c1	inconclusive: 28.2 µM [inhibitor, full curve, poor fit]	
CCOC(=O)N1CCc2c(sc(NCc3cccs3)c2C(=O)Nc2cc(OC)ccc2OC)C1	inconclusive: 56.2 µM [inhibitor, partial curve, poor fit]	
